Test results: PMC4510971, “Ubinuclein-1 confers histone H3.3-specific-binding by the HIRA histone chaperone complex” (Nature Communications, 2015)

What was measured:
[1] = target: T1, H3.1/H4 (human | X. laevis, UniProt P68431; P62799); assay: SEC; twofold excess of Asf1 mixed with FL H3/H4 in 2.0 M NaCl, dialysed into 20 mM HEPES pH 7.5, 750 mM NaCl, 1 mM TCEP, complex separated from excess Asf1 on Superdex S75; settings: both partners purified
T1 construct: also called H3.1(FL)/H4(FL); FL H3.1/H4; not shown: His6, N-terminal, cleaved; copies: 2 + 2

[2] = target: T2, H3.3/H4 (human | X. laevis, UniProt P84243; P62799); assay: as above; settings: both partners purified
T2 construct: histone H3.3, human, from a human cDNA library (ATCC 77430); also called H3.3(FL)/H4(FL); FL H3.3/H4; not shown: His6, N-terminal, cleaved; copies: 2 + 2

binding result [1]: binds
binding result [2]: binds
B1: Asf1([…]) (domain or fragment)
chain: not shown
notes: also called Asf1 core domain; source: E. coli BL21-Gold(DE3), GST-Asf1 cleaved with prescission protease; excess free Asf1 separated from the Asf1/H3/H4 complex by gel filtration
